The results in this text go back to article PMC4336329 (PLoS ONE, 2015).

The whole screen tested about 310,000 compounds, of which about 2,200 (0.71%) showed an effect of 50% or more. Effects have a minus sign here. This is one part of the list.

For the assay, the target named is human ether-à-go-go-related gene (hERG) potassium channel (human, UniProt Q12809). The assay can be described thus: primary screen, population patch clamp on CHO cells stably expressing hERG.
human ether-à-go-go-related gene (hERG) potassium channel, sequence (Q12809 whole entry, looked up): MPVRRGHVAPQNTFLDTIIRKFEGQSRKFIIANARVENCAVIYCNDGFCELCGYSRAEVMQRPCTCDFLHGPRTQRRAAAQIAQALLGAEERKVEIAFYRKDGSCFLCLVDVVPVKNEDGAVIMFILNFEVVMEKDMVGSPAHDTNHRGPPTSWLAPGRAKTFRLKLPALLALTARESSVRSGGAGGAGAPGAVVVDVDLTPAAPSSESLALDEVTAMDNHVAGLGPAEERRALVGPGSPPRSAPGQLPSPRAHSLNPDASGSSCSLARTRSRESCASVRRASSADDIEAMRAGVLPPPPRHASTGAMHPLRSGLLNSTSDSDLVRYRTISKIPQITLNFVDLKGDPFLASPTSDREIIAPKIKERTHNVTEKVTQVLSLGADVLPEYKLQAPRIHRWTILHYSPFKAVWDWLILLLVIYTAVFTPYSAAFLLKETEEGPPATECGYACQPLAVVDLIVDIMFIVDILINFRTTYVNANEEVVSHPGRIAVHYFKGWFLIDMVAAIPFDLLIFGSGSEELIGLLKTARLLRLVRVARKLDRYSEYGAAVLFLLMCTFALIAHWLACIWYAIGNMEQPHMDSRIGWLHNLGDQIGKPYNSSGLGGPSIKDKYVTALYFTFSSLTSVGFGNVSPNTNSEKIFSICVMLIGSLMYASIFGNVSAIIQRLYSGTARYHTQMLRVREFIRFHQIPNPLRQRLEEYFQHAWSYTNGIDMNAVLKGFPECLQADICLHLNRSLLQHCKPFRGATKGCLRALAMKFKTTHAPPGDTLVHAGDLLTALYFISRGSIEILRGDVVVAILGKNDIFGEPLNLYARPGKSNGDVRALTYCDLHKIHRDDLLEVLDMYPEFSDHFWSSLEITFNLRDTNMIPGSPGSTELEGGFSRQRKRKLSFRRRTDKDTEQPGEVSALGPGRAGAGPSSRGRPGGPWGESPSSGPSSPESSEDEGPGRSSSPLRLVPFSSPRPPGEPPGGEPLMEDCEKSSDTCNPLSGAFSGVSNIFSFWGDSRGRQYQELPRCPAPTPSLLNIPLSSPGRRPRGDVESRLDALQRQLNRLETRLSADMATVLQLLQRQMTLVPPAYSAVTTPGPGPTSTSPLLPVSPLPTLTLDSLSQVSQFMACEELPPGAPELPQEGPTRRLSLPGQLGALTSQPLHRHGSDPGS
Turning to `COc1ccc(S(=O)(=O)N(CC(=O)N/N=C/c2ccc(C(=O)O)cc2)Cc2ccccc2)cc1OC`, the “hERG current change (%, negative = inhibition) at 1uM” value is given as 9.77%.

With `COC(=O)COc1cc(Cl)c(C=O)cc1OC`, the “hERG current change (%, negative = inhibition) at 1uM” value worked out at 15.5%.

Take `CCOc1ccc(C(C)=O)cc1CSc1nc2nc(C)cc(C)n2n1`: the “hERG current change (%, negative = inhibition) at 1uM” value worked out at 7.97%.

On to `O=C(N/N=C/c1ccc(Cl)cc1)c1cc2c(s1)-c1ccccc1CC2`, for which the “hERG current change (%, negative = inhibition) at 1uM” value was determined as 6.26%.

As to `COP(=O)(OC)c1nc(-c2cccc3ccccc23)oc1NCc1ccccc1`, the “hERG current change (%, negative = inhibition) at 1uM” value was found to be 6.32%.

As for `Cc1coc(NC(=O)CSc2nc(-c3ccncc3)cc(C(F)(F)F)c2C#N)n1`, the “hERG current change (%, negative = inhibition) at 1uM” value is recorded as 10.8%.

For the molecule `CN(C)c1ccc(CNc2ccc3c(c2)ncn3C)cc1`, the “hERG current change (%, negative = inhibition) at 1uM” value was -0.566%.

For `COc1ccc(CN(C)C(=O)c2cc(-c3ccccc3)nc3ccc(C)cc23)c(OC)c1OC`, the “hERG current change (%, negative = inhibition) at 1uM” value stood at 13.1%.

Regarding `O=C(O)CN1C(=O)CC(Cc2ccc(Cl)cc2)C1=O` (stereo not shown), the “hERG current change (%, negative = inhibition) at 1uM” value was found to be 5.16%.

Consider `CCOc1cc2c(cc1/C=C/C(=O)O)OC(C)C2` (stereo not shown), for which the “hERG current change (%, negative = inhibition) at 1uM” value turned out to be 6.95%.

With `CCn1nnnc1SCC(=O)N1CCc2ccccc21`, the “hERG current change (%, negative = inhibition) at 1uM” value is 8.56%.

Take `CCOc1cc(/C=C2\C(=O)ON=C2C)ccc1OCc1ccccc1`: the “hERG current change (%, negative = inhibition) at 1uM” value was 13.2%.

On to `COc1cc(CN(C(=O)c2cc3ccccc3oc2=O)C2CCS(=O)(=O)C2)cc(OC)c1OC` (stereo not shown), for which the “hERG current change (%, negative = inhibition) at 1uM” value worked out at 3.48%.

For `O=C(Nc1ccccc1)Nc1nc2ccccc2s1`, the “hERG current change (%, negative = inhibition) at 1uM” value amounted to 10.5%.

As to `O=C(CCN1C(=O)c2ccccc2C1=O)Oc1ccc2ccccc2c1`, the “hERG current change (%, negative = inhibition) at 1uM” value is recorded as 8.07%.

`O=C(Cc1ncc(C(F)(F)F)cc1Cl)NCCc1ccccc1`: the “hERG current change (%, negative = inhibition) at 1uM” value is 9.92%.

`C#Cc1ccc([C@H]2C=C(C(=O)OCC=C)O[C@@H](OCCCCO)C2)cc1`: the “hERG current change (%, negative = inhibition) at 1uM” value turned out to be 13.9%.

In the case of `Nc1nnc(-c2cn(-c3ccccc3)nc2-c2ccccc2)o1`, the “hERG current change (%, negative = inhibition) at 1uM” value worked out at 5.27%.

In the case of `Cc1cccc(-n2c(SCC(=O)NCc3ccco3)nnc2-c2ccco2)c1`, the “hERG current change (%, negative = inhibition) at 1uM” value is reported as -46%.

With `Cc1ccc2[nH]c3c(c2c1)CCNC3=O`, the “hERG current change (%, negative = inhibition) at 1uM” value is reported as 6.12%.

As to `O=C(CSc1nc2ccccc2c(=O)n1-c1ccc(OC(F)F)cc1)NCc1cccs1`, the “hERG current change (%, negative = inhibition) at 1uM” value is -0.662%.

In the case of `CN1CCN(c2ccc(CNC(=O)c3ccc4c(c3)OCCO4)cc2)CC1`, the “hERG current change (%, negative = inhibition) at 1uM” value is -1.61%.

Take `Cc1cc(C)nc(N(C#N)CC(=O)N(c2ccccc2)C(C)C)n1`: the “hERG current change (%, negative = inhibition) at 1uM” value was determined as 12.9%.

Regarding `O=C(COC(=O)c1ccc(=O)[nH]c1)Nc1cccc(S(=O)(=O)N2CCOCC2)c1`, the “hERG current change (%, negative = inhibition) at 1uM” value was 11.1%.

Regarding `CCOC(=O)C1CCCN(S(=O)(=O)c2ccc3c(c2)C(C)(C)C(=O)N3C)C1` (stereo not shown), the “hERG current change (%, negative = inhibition) at 1uM” value is 7.64%.

For the molecule `CC(C)OC(=O)c1cc2c(ccn2C)n1CC(=O)N1CCC(Cc2ccccc2)CC1`, the “hERG current change (%, negative = inhibition) at 1uM” value is given as 6.23%.

`COCc1ccc(C(=O)N2CCN(CC(=O)N3CCCC3)CC2)cc1`: the “hERG current change (%, negative = inhibition) at 1uM” value is given as -2.37%.

For the molecule `COc1ccc(C(=O)NCc2cccnc2)cc1S(=O)(=O)N1CCCc2ccccc21`, the “hERG current change (%, negative = inhibition) at 1uM” value is on record as 0.682%.

As for `CCOC(=O)c1c(NC(=O)CCNCc2ccco2)sc2c1CCC2.O=C(O)C(=O)O`, the “hERG current change (%, negative = inhibition) at 1uM” value worked out at 2.71%.

In the case of `CCOC(=O)CNc1ccc2c(c1)OCO2`, the “hERG current change (%, negative = inhibition) at 1uM” value is reported as 17.2%.

Turning to `CC(C)(C)c1cc(P(=O)(c2ccccc2)c2ccccc2)ccc1O`, the “hERG current change (%, negative = inhibition) at 1uM” value came to 3.75%.

With `Cc1n[nH]c(C)c1S(=O)(=O)N1CCCC(C(=O)NCc2ccc(F)cc2)C1` (stereo not shown), the “hERG current change (%, negative = inhibition) at 1uM” value is recorded as 6.29%.

`CC(=O)OCC(OC(C)=O)C(OC(C)=O)C(OC(C)=O)C(=O)Nc1cccc(C)c1` (stereo not shown): the “hERG current change (%, negative = inhibition) at 1uM” value is given as 20.4%.

For the molecule `CC(C)[C@H](NC(=O)C1CCCC1)c1nc2ccccc2[nH]1`, the “hERG current change (%, negative = inhibition) at 1uM” value stood at 13.4%.

On to `Cc1cc(Br)ccc1NC(=O)c1ccc(-n2cncn2)c([N+](=O)[O-])c1`, for which the “hERG current change (%, negative = inhibition) at 1uM” value worked out at 12.4%.

`Cc1sc2ncn(CC(=O)N3CCN(c4ccccc4F)CC3)c(=O)c2c1S(=O)(=O)N1CCOCC1`: the “hERG current change (%, negative = inhibition) at 1uM” value was determined as 6.78%.

Take `CC(C(=O)OCc1nnc(-c2ccccc2)o1)N1C(=O)c2ccccc2C1=O` (stereo not shown): the “hERG current change (%, negative = inhibition) at 1uM” value is reported as -13.6%.

As to `CCN(CC)c1ccc(S(=O)(=O)N(CC)CC)cc1NC(=O)c1cccnc1`, the “hERG current change (%, negative = inhibition) at 1uM” value is -3.72%.

Take `CCOC(=O)c1cc(C#N)c(SCc2cccc3ccccc23)nc1C`: the “hERG current change (%, negative = inhibition) at 1uM” value came out at 6.07%.

On to `O=C(Nc1ccc2oc(Cc3ccc(Cl)cc3)nc2c1)c1cccnc1`, for which the “hERG current change (%, negative = inhibition) at 1uM” value is -0.226%.

For the molecule `O=c1cc(-c2ccccc2Cl)oc2c(NS(=O)(=O)c3ccccc3C(F)(F)F)ccc(O)c12`, the “hERG current change (%, negative = inhibition) at 1uM” value is listed as 11.6%.

Turning to `CCOc1nc(N2CCCCC2)nc(-n2cc(-c3ccccc3)nn2)n1`, the “hERG current change (%, negative = inhibition) at 1uM” value is on record as 11%.

With `Cc1c([N+](=O)[O-])cc(C(=O)NCc2ccc(F)cc2)cc1[N+](=O)[O-]`, the “hERG current change (%, negative = inhibition) at 1uM” value is -31.7%.

For the molecule `CC(C)Oc1ccccc1NC(=O)CSc1nc2ccccc2c(=O)n1C`, the “hERG current change (%, negative = inhibition) at 1uM” value worked out at 3.54%.

Consider `Cc1ccccc1NC(=O)CSCCN1C(=O)c2ccccc2C1=O`, for which the “hERG current change (%, negative = inhibition) at 1uM” value amounted to 4.91%.

Consider `O=C(c1cc(-c2ccc(Cl)c(Cl)c2)on1)N1CCCCCC1`, for which the “hERG current change (%, negative = inhibition) at 1uM” value was determined as 1.99%.

For `Cc1ccc(C2=N/C(=C/N3CCOCC3)C(=O)O2)cc1`, the “hERG current change (%, negative = inhibition) at 1uM” value is recorded as 5.48%.

For `COC(=O)c1ccccc1NC(=O)CN(c1ccc(OC)cc1)S(C)(=O)=O`, the “hERG current change (%, negative = inhibition) at 1uM” value was 5.04%.

`CCN1CCN(C(=O)c2cc(-c3cccnc3)nc3ccc(Br)cc23)CC1`: the “hERG current change (%, negative = inhibition) at 1uM” value is listed as 4.57%.

Regarding `COc1cccc(NC(=O)CCC(=O)Nc2cccc(OC)c2)c1`, the “hERG current change (%, negative = inhibition) at 1uM” value worked out at 6.48%.

In the case of `COc1cccc(N/C(SC)=C(/C#N)C(=O)NCc2cccs2)c1`, the “hERG current change (%, negative = inhibition) at 1uM” value came to 3.99%.

Consider `COc1ccc(CCC(=O)NCCOc2ccc(C)cc2)cc1`, for which the “hERG current change (%, negative = inhibition) at 1uM” value came to 8.63%.

On to `O=C(NC1CCCCCCC1)c1ccc(F)cc1`, for which the “hERG current change (%, negative = inhibition) at 1uM” value is listed as 14.9%.

Turning to `COc1ccc(N2CCN(CCCNC(=O)CCC(=O)N3CCOc4ccc(Cl)cc43)CC2)cc1`, the “hERG current change (%, negative = inhibition) at 1uM” value is -32.8%.

For `Cc1ccc2c(C)c(C(=O)N(Cc3cccs3)C3CCS(=O)(=O)C3)oc2c1` (stereo not shown), the “hERG current change (%, negative = inhibition) at 1uM” value is reported as 6.95%.
